The record followed here is the supplement of paper PMC11060735.

“And” between values parts separate entries of the source, which are not always exact repeats. Equal entries are not always repeated. Structures can show the parent of a compound that is named as a salt. Out of some 1,800 compounds screened, about 50 (3%) showed activity. The list shows a part of the results.
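Note: fibroblasts sorted 14 days after bleomycin, GFP+ and GFP− mixed 1:1 in 384-well plates (GFP− as in-well control), imaged after Hoechst and NucView530 staining, reference wells lacked compound.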

For the assay, the system named is mouse p16Ink4a+/- lung fibroblasts (INKBRITE, bleomycin-injured). Briefly: percentage of GFP+ (p16Ink4a+) fibroblasts among all cells in well; higher = less depletion of p16Ink4a+ cells, active = 20 or less. Particulars: 1 µM; 3 days.
`Cc1ccc(S(=O)(=O)NC(=O)NN2CC3CCCC3C2)cc1` (stereo not drawn) [Gliclazide]: the “percentage of GFP+” value was inactive: 38%.

`COc1ccc(NS(=O)(=O)c2ccc(N)cc2)nn1` [Sulfamethoxypyridazine]: the “percentage of GFP+” value is inactive: 48.1%. The figure for `CC1=C(C(=O)Nc2cc3c[nH]nc3cc2F)C(c2ccc(C(F)(F)F)cc2)CC(=O)N1` (stereo not drawn) is inactive: 38.2%; for `Clc1ccc2nsnc2c1NC1=NCCN1` [Tizanidine] it is inactive: 36.5%; for `COc1cc2nc(N3CCCN(C)CC3)nc(NC3CCN(Cc4ccccc4)CC3)c2cc1OC` it is inactive: 50.9%. The figure for `CN(C)CCc1c[nH]c2ccc(Cn3cncn3)cc12` [Rizatriptan] is inactive: 46.7%; for `OC[C@H]1O[C@@H](Oc2ccc(O)cc2)[C@H](O)[C@@H](O)[C@@H]1O` [Arbutin] it is inactive: 39.7%. As for `O=C(O)c1cc2cccc([N+](=O)[O-])c2[nH]1`, the “percentage of GFP+” value was inactive: 46.7%. Next, `COc1cc2c(Nc3ccc(Br)cc3F)ncnc2cc1OCC1CCN(C)CC1` [Vandetanib]: inactive: 50.9%; `O=C1O[C@H]([C@@H](O)CO)C(O)C1O` (stereo partly drawn) [Sodium ascorbate]: inactive: 52.2%; `CC(C)(C)C#Cc1cc(N(C(=O)[C@H]2CC[C@H](C)CC2)[C@H]2CC[C@@H](O)CC2)c(C(=O)O)s1` [Lomibuvir]: inactive: 41.8%. Next, `CCOc1cc(CC(=O)N[C@@H](CC(C)C)c2ccccc2N2CCCCC2)ccc1C(=O)O` [Repaglinide]: inactive: 45.1%; `O=C(O)c1cc(=O)[nH]c(=O)[nH]1` [Orotic Acid]: inactive: 37.4%; `COc1cc(CCC(C)=O)ccc1O` [Vanillylacetone]: inactive: 46.6%. Take `N=C(N)Nc1ccc(C(=O)Oc2ccc3cc(C(=N)N)ccc3c2)cc1` [Nafamostat]: the “percentage of GFP+” value is inactive: 41.7%. As to `CC1=CC(=O)NS(=O)(=O)O1` [Acesulfame Potassium], the “percentage of GFP+” value was inactive: 42.7%. Next, `O=C(O)CCCc1ccccc1` [Gamma-Phenyl-Butyric Acid]: inactive: 45%. As to `CC(C)[C@H]1C(=O)N[C@@H](CCCN=C(N)N)C(=O)NCC(=O)N[C@@H](CC(=O)O)C(=O)N[C@H](Cc2ccccc2)C(=O)N1C` [Cilengitide], the “percentage of GFP+” value was inactive: 46.7%.

In the case of `Cc1cc(Nc2nc(N[C@@H](C)c3ccc(F)cc3)c(C#N)cc2F)n[nH]1`, the “percentage of GFP+” value is inactive: 28.1%. The figure for `Cc1ccc(C(=O)N(CCCN)[C@@H](c2nc3cc(Cl)ccc3c(=O)n2Cc2ccccc2)C(C)C)cc1` [Ispinesib] is inactive: 31.3%; for `Oc1ccc2ccccc2c1SSc1c(O)ccc2ccccc12` it is inactive: 48.4%. As for `Cc1ccccc1CN1C2=NCCN2C(=O)C2=C1CCN(Cc1ccccc1)C2`, the “percentage of GFP+” value is inactive: 51.8%.

On to `CCOC(=O)[C@H](CCc1ccccc1)N[C@@H](C)C(=O)N1CCC[C@H]1C(=O)O` [Enalapril], for which the “percentage of GFP+” value is inactive: 46%.

Regarding `O=C(Oc1ccccc1C(=O)O)c1ccccc1O` [Salsalate], the “percentage of GFP+” value was inactive: 49%. Next, `Cc1ncc([N+](=O)[O-])n1CCO` [Metronidazole]: inactive: 36.8%.

As to `COc1cc(C(C)=O)ccc1O` [Apocynin], the “percentage of GFP+” value was inactive: 38%. Turning to `C=C(c1ccc(C(=O)O)cc1)c1cc2c(cc1C)C(C)(C)CCC2(C)C` [Bexarotene], the “percentage of GFP+” value was inactive: 46%. For `COc1ccc(COc2ccc(Cc3cnc(N)nc3N)cc2OC)cc1`, the “percentage of GFP+” value is inactive: 33.4%. Turning to `COc1ccc(NS(=O)(=O)c2sc3ccc(Cl)cc3c2C)cc1N1CCNCC1`, the “percentage of GFP+” value is inactive: 59.1%. `C=C1/C(=C/C=C2\CCC[C@]3(C)[C@@H]([C@H](C)/C=C/[C@@H](C)C(C)C)CC[C@@H]23)C[C@@H](O)C[C@@H]1O` [Doxercalciferol]: the “percentage of GFP+” value was inactive: 21.2%. The figure for `CCn1c(N)c(C(=O)NC)c(=O)c2ccc(C#C[C@@](C)(O)COC)nc21` is inactive: 41.5%. Next, `CCN1CCN(C(=O)N[C@@H](C(=O)N[C@@H]2C(=O)N3[C@@H]2SC(C)(C)[C@@H]3C(=O)O)c2ccccc2)C(=O)C1=O` [Piperacillin]: inactive: 50.6%; `C[C@@H]1COCCN1c1cc(C2(S(C)(=O)=O)CC2)nc(-c2cccc3[nH]ccc23)n1`: inactive: 30.4%; `O=C(O)c1cc(=O)c2ccccc2o1` [Chromocarb]: inactive: 50.4%. The figure for `CN(C[C@@H]1COCCO1)S(=O)(=O)Nc1ccc2ccc3ncc(-c4cnn(C)c4)cc3c(=O)c2c1` is inactive: 47.7%. Consider `CCCc1nn(C)c2c(O)nc(-c3cc(S(=O)(=O)N4CCN(C)CC4)ccc3OCC)nc12` [Sildenafil, Sildenafil Citrate], for which the “percentage of GFP+” value was inactive: 52.3%.

In the case of `O=C(Nc1ccccc1)Nc1ccc(-c2ccc(C(=O)[C@@H]3CCC[C@H]3C(=O)O)cc2)cc1`, the “percentage of GFP+” value is inactive: 45.8%. Next, `Cc1cccc(C)c1NC(=O)C1CCCCN1C` (stereo not drawn) [Mepivacaine]: inactive: 44.4%; `COc1ccc(-c2cc(=O)c3c(OC)c(OC)c(OC)c(OC)c3o2)cc1` [Tangeretin]: inactive: 48.6%; `CN(C)Cc1ccc(S(=O)(=O)n2ccc(/C=C/C(=O)NO)c2)cc1` [Resminostat]: inactive: 37.1%.

For `Cc1cccc(Nc2nc(-c3ccncc3)cs2)c1`, the “percentage of GFP+” value was inactive: 42.4%. Next, `O[C@@H](COc1cccc2ncccc12)CN1CCN([C@@H]2c3ccccc3[C@@H]3[C@H](c4ccccc42)C3(F)F)CC1` [Zosuquidar 3HCl]: inactive: 50.4%; `Cc1c(N)nc([C@H](CC(N)=O)NC[C@@H](N)C(N)=O)nc1C(=O)N[C@H](C(=O)N[C@@H](C)[C@H](O)[C@@H](C)C(=O)N[C@@H](C(=O)NCCc1nc(-c2nc(C(=O)NCCC[SH](C)C)cs2)cs1)[C@@H](C)O)C(O[C@H]1O[C@H](CO)[C@H](O)[C@@H](O)[C@H]1O[C@H]1O[C@H](CO)[C@@H](O)[C@H](OC(N)=O)[C@@H]1O)c1c[nH]cn1` (stereo partly drawn) [Bleomycin]: inactive: 36.1%. Next, `NC(CO)(CO)CO`: inactive: 52.3%; `CCC(=O)N1CCN(c2ccc(-n3c(=O)ccc4cnc5ccc(-c6cnc7ccccc7c6)cc5c43)cc2C(F)(F)F)CC1` [Torin 1]: inactive: 46%; `CS(=O)(=O)c1ccc([C@@H](O)[C@@H](CO)NC(=O)C(Cl)Cl)cc1` [Thiamphenicol]: inactive: 49.4%. For `Cn1cnc2c1c(=O)[nH]c(=O)n2C` [Theobromine], the “percentage of GFP+” value was inactive: 38.9%.

Turning to `CCN[C@H]1CN(CCCOC)S(=O)(=O)c2sc(S(N)(=O)=O)cc21` [Brinzolamide], the “percentage of GFP+” value was inactive: 44.8%. Turning to `O=C(O)CCCc1c[nH]c2ccccc12` [3-Indolebutyric Acid], the “percentage of GFP+” value was inactive: 48.2%.

As to `O=C(Cc1ccc(-c2ccc(OCCN3CCOCC3)cc2)cn1)NCc1ccccc1`, the “percentage of GFP+” value was inactive: 30.9%.

`CC1CCN(CC[C@H]2CCCN2S(=O)(=O)c2cccc(O)c2)CC1`: the “percentage of GFP+” value is inactive: 56.6%. Turning to `O=S(=O)(O)CCS` [Mesna], the “percentage of GFP+” value is inactive: 35.4%.

As to `O=C(O)/C=C/c1ccc(Cn2ccnc2)cc1` [Ozagrel HCl], the “percentage of GFP+” value was inactive: 41.7% and inactive: 44.8%.

In the case of `Cc1ccc(NC(=O)c2ccc(CN3CCN(C)CC3)cc2)cc1Nc1nc(-c2cccnc2)cs1` [Masitinib], the “percentage of GFP+” value is inactive: 30.8%. The figure for `Cn1cc(-c2ccc3ncc(Cc4ccc5ncccc5c4)n3n2)cn1` is inactive: 41.3%; for `O=C(O)CCCN1CCC(O[C@@H](c2ccc(Cl)cc2)c2ccccn2)CC1` [Bepotastine Besilate] it is inactive: 54.5%; for `Nc1nc(N)nc(-c2cc(Cl)ccc2Cl)n1` [Irsogladine Maleate] it is inactive: 37%. Consider `Cc1cccc(CC(=O)N2CCc3c2ccc(-c2cn(C)c4ncnc(N)c24)c3F)n1`, for which the “percentage of GFP+” value is inactive: 45%. For `Cc1noc(-c2ccc(CSCCC(=O)O)cc2)c1NC(=O)OC(C)c1ccccc1Cl` (stereo not drawn), the “percentage of GFP+” value is inactive: 37.1%.

For the molecule `NC(=O)c1cccc(-c2cc(Nc3ccc(OC(F)(F)F)cc3)ncn2)c1`, the “percentage of GFP+” value was inactive: 46.4%. On to `CCCCC[C@H](O)/C=C/[C@H]1[C@H](O)CC(=O)[C@@H]1CCCCCCC(=O)O` [Alprostadil], for which the “percentage of GFP+” value was inactive: 22.6%. Regarding `CC(C)NCC(O)COc1ccc(COCCOC(C)C)cc1` (stereo not drawn) [Bisoprolol], the “percentage of GFP+” value is inactive: 40.5%. In the case of `O=C(c1ccc(F)cc1)N1CCC[C@H](c2nc(-c3ccc(F)cc3)no2)C1`, the “percentage of GFP+” value is inactive: 36.6%. The figure for `N=C(N)N/N=C/c1c(Cl)cccc1Cl` [Guanabenz] is inactive: 49.3%; for `[O]=[Mg]` [Magnesium oxide] it is inactive: 47.1%. With `Cc1c(OCC(F)(F)F)ccnc1C[S@@](=O)c1nc2ccccc2[nH]1` [Dexlansoprazole], the “percentage of GFP+” value is inactive: 52%. The figure for `C[C@@]12C[C@@]3(O)O[C@@H](O1)[C@]1(COC(=O)c4ccccc4)[C@H]3C[C@@]12O[C@@H]1O[C@H](CO)[C@@H](O)[C@H](O)[C@H]1O` [Paeoniflorin] is inactive: 43%; for `CC1COC2(CCN(c3nc(=O)c4cc(C(F)(F)F)cc([N+](=O)[O-])c4s3)CC2)O1` (racemic) [BTZ043 Racemate] it is inactive: 29.3%; for `CCC[C@@H]1C[C@@H](C(=O)N[C@@H]([C@H]2O[C@H](SC)[C@H](O)[C@@H](O)[C@@H]2O)[C@@H](C)O)N(C)C1` [Lincomycin HCl] it is inactive: 43.1%. `Nc1ncn([C@@H]2O[C@H](CO)[C@@H](O)[C@H]2O)c(=O)n1` [5-azacytidine, Azacitidine]: the “percentage of GFP+” value was inactive: 37.9%. Turning to `CC1(C)[C@H](C(=O)O)N2C(=O)C[C@H]2S1(=O)=O` [Sulbactam], the “percentage of GFP+” value is inactive: 45.5% and inactive: 41.4%. For `Cc1c(-c2ccccc2)oc2c(C(=O)OCCN3CCCCC3)cccc2c1=O` [Flavoxate], the “percentage of GFP+” value is inactive: 43%. Regarding `Cn1cc(/C=C/C(=O)c2cccc(F)c2)cc1/C=C/C(=O)NO`, the “percentage of GFP+” value is inactive: 54%.
